From the supplement of paper PMC8728848
Some of the results follow.

Key:
Assay in all cases: glycan array binding signal (z-score within array); higher = stronger binding
Details in all cases: glycan notation: IUPAC condensed, linker removed
Neu5Ac(a2-3)Gal = target: Neu5Ac(a2-3)Gal
In short: (§1)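 Glycan array data were curated from 3228 arrays in the Consortium for Functional Glycomics database and kept only where the protein sequence was available. Glycan names were converted to IUPAC-condensed notation, and columns mapping to the same glycan were averaged. The binding signal is a within-array Z-score, averaged across arrays of the same protein sequence at different concentrations or buffers and across linkers. Negative Z-scores can be read as non-binding.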

[1] = target: Neu5Ac(a2-3)Gal(b1-3)GalNAc
In short: as §1

[2] = target: Neu5Ac(a2-3)Gal(b1-3)GalNAc(b1-3)Gal(a1-4)Gal(b1-4)Glc
In short: as §1

[3] = target: Neu5Ac(a2-3)Gal(b1-3)GalNAc(b1-4)Gal(b1-4)Glc
In short: as §1

[4] = target: Neu5Ac(a2-3)Gal(b1-3)GalNAc(b1-4)[Neu5Ac(a2-3)]Gal(b1-4)Glc
In short: as §1

[5] = target: Neu5Ac(a2-3)Gal(b1-3)GalNAc(b1-4)[Neu5Ac(a2-8)Neu5Ac(a2-3)]Gal(b1-4)Glc
In short: as §1

[6] = target: Neu5Ac(a2-3)Gal(b1-3)GalNAc6S
In short: as §1

[7] = target: Neu5Ac(a2-3)Gal(b1-3)GlcNAc
In short: as §1

[8] = target: Neu5Ac(a2-3)Gal(b1-3)GlcNAc(b1-2)Man
In short: as §1

[9] = target: Neu5Ac(a2-3)Gal(b1-3)GlcNAc(b1-2)Man(a1-3)[GlcNAc(b1-4)][Neu5Ac(a2-3)Gal(b1-3)GlcNAc(b1-2)Man(a1-6)]Man(b1-4)GlcNAc(b1-4)GlcNAc
In short: as §1

[10] = target: Neu5Ac(a2-3)Gal(b1-3)GlcNAc(b1-2)Man(a1-3)[Neu5Ac(a2-3)Gal(b1-3)GlcNAc(b1-2)Man(a1-6)]Man(b1-4)GlcNAc(b1-4)GlcNAc
In short: as §1

[11] = target: Neu5Ac(a2-3)Gal(b1-3)GlcNAc(b1-2)[Neu5Ac(a2-3)Gal(b1-3)GlcNAc(b1-4)]Man(a1-6)[Neu5Ac(a2-3)Gal(b1-3)GlcNAc(b1-2)Man(a1-3)]Man(b1-4)GlcNAc(b1-4)GlcNAc
In short: as §1

[12] = target: Neu5Ac(a2-3)Gal(b1-3)GlcNAc(b1-3)Gal(b1-3)GlcNAc
In short: as §1

[13] = target: Neu5Ac(a2-3)Gal(b1-3)GlcNAc(b1-3)Gal(b1-4)GlcNAc
In short: as §1

[14] = target: Neu5Ac(a2-3)Gal(b1-3)GlcNAc(b1-3)GalNAc
In short: as §1

[15] = target: Neu5Ac(a2-3)Gal(b1-3)GlcNAc(b1-4)Gal(b1-4)Glc
In short: as §1

[16] = target: Neu5Ac(a2-3)Gal(b1-3)GlcNAc(b1-6)GalNAc
In short: as §1

[17] = target: Neu5Ac(a2-3)Gal(b1-3)GlcNAc6S
In short: as §1

[18] = target: Neu5Ac(a2-3)Gal(b1-3)[Fuc(a1-4)]GlcNAc
In short: as §1

[19] = target: Neu5Ac(a2-3)Gal(b1-3)[Fuc(a1-4)]GlcNAc(b1-3)Gal(b1-3)[Fuc(a1-4)]GlcNAc
In short: as §1

[20] = target: Neu5Ac(a2-3)Gal(b1-3)[Fuc(a1-4)]GlcNAc(b1-3)Gal(b1-4)[Fuc(a1-3)]GlcNAc
In short: as §1

[21] = target: Neu5Ac(a2-3)Gal(b1-3)[GlcNAc(b1-6)]GalNAc
In short: as §1

[22] = target: Neu5Ac(a2-3)Gal(b1-3)[Neu5Ac(a2-6)]GalNAc
In short: as §1

[23] = target: Neu5Ac(a2-3)Gal(b1-3)[Neu5Ac(a2-6)]GlcNAc(b1-3)[Fuc(a1-3)[Gal(b1-4)]GlcNAc(b1-6)]Gal(b1-4)Glc
In short: as §1

[24] = target: Neu5Ac(a2-3)Gal(b1-3)]Neu5Ac(a2-3)Gal(b1-4)]GlcNAc
In short: as §1

Neu5Ac(a2-3)Gal(b1-4)Glc = target: Neu5Ac(a2-3)Gal(b1-4)Glc
In short: as §1

[25] = target: Neu5Ac(a2-3)Gal(b1-4)GlcNAc
In short: as §1

[26] = target: Neu5Ac(a2-3)Gal(b1-4)GlcNAc(b1-2)Man
In short: as §1

[27] = target: Neu5Ac(a2-3)Gal(b1-4)GlcNAc(b1-2)Man(a1-3)[GlcNAc(b1-4)][Neu5Ac(a2-3)Gal(b1-4)GlcNAc(b1-2)Man(a1-6)]Man(b1-4)GlcNAc(b1-4)GlcNAc
In short: as §1

[28] = target: Neu5Ac(a2-3)Gal(b1-4)GlcNAc(b1-2)Man(a1-3)[Neu5Ac(a2-3)Gal(b1-4)GlcNAc(b1-2)Man(a1-6)]Man(b1-4)GlcNAc(b1-4)GlcNAc
In short: as §1

[29] = target: Neu5Ac(a2-3)Gal(b1-4)GlcNAc(b1-2)Man(a1-3)[Neu5Ac(a2-3)Gal(b1-4)GlcNAc(b1-2)Man(a1-6)]Man(b1-4)GlcNAc(b1-4)[Fuc(a1-6)]GlcNAc
In short: as §1

[30] = target: Neu5Ac(a2-3)Gal(b1-4)GlcNAc(b1-2)Man(a1-3)[Neu5Ac(a2-6)Gal(b1-4)GlcNAc(b1-2)Man(a1-6)]Man(b1-4)GlcNAc(b1-4)GlcNAc
In short: as §1

[31] = target: Neu5Ac(a2-3)Gal(b1-4)GlcNAc(b1-2)[Neu5Ac(a2-3)Gal(b1-4)GlcNAc(b1-4)]Man(a1-3)[GlcNAc(b1-4)][Neu5Ac(a2-3)Gal(b1-4)GlcNAc(b1-2)[Neu5Ac(a2-3)Gal(b1-4)GlcNAc(b1-6)]Man(a1-6)]Man(b1-4)GlcNAc(b1-4)GlcNAc
In short: as §1

[32] = target: Neu5Ac(a2-3)Gal(b1-4)GlcNAc(b1-2)[Neu5Ac(a2-3)Gal(b1-4)GlcNAc(b1-4)]Man(a1-3)[GlcNAc(b1-4)][Neu5Ac(a2-3)Gal(b1-4)GlcNAc(b1-4)Man(a1-6)]Man(b1-4)GlcNAc(b1-4)GlcNAc
In short: as §1

[33] = target: Neu5Ac(a2-3)Gal(b1-4)GlcNAc(b1-2)[Neu5Ac(a2-3)Gal(b1-4)GlcNAc(b1-6)]Man(a1-6)[Neu5Ac(a2-3)Gal(b1-4)GlcNAc(b1-2)Man(a1-3)]Man(b1-4)GlcNAc(b1-4)GlcNAc
In short: as §1

[34] = target: Neu5Ac(a2-3)Gal(b1-4)GlcNAc(b1-2)[Neu5Ac(a2-3)Gal(b1-4)GlcNAc(b1-6)]Man(a1-6)[Neu5Ac(a2-3)Gal(b1-4)GlcNAc(b1-2)Man(a1-3)][GlcNAc(b1-4)]Man(b1-4)GlcNAc(b1-4)GlcNAc
In short: as §1

[35] = target: Neu5Ac(a2-3)Gal(b1-4)GlcNAc(b1-3)Gal
In short: as §1

B1: DrGal9 (Danio rerio) (protein)
chain: MAFYQQPPYYNPRIPFSGPIQGGLQDGKSIIISGRVLPGANRFHVNLQCGSHSEANVALHFNPRYEDTDYVVNNSYLNRTWGSEERKYESPFAQGQTFTLQILVAQDKYKISTNGRHFMDYKHRIPFTQVDTVAVEGMVEVNSVAFQNPAGFIPPQAGYAPQYAVPPGCGFPAFPSAPNYTIPHKTVMNGGLHPGKNIVINGVVNPNAKSIIFNLCYRSGIAFHYNPRFDENVVVRNTNQMEKWGAEERFGGLPFHKGQPFQVTISCNPQHYNVFVNGKQEHTYKHRYTKLNDIDILEICGDLQLTSVQA
glycan array binding signal (z-score) (Neu5Ac(a2-3)Gal): -0.392
glycan array binding signal (z-score) [1]: -0.307
glycan array binding signal (z-score) [2]: 0.159
glycan array binding signal (z-score) [3]: -0.279
glycan array binding signal (z-score) [4]: -0.335
glycan array binding signal (z-score) [5]: -0.396
glycan array binding signal (z-score) [6]: -0.385
glycan array binding signal (z-score) [7]: 0.058
glycan array binding signal (z-score) [8]: 0.148
glycan array binding signal (z-score) [9]: -0.417
glycan array binding signal (z-score) [10]: -0.336
glycan array binding signal (z-score) [11]: -0.149
glycan array binding signal (z-score) [12]: 0.238
glycan array binding signal (z-score) [13]: 0.595
glycan array binding signal (z-score) [14]: -0.344
glycan array binding signal (z-score) [15]: -0.623
glycan array binding signal (z-score) [16]: -0.117
glycan array binding signal (z-score) [17]: -0.144
glycan array binding signal (z-score) [18]: -0.401
glycan array binding signal (z-score) [19]: -0.369
glycan array binding signal (z-score) [20]: -0.319
glycan array binding signal (z-score) [21]: -0.395
glycan array binding signal (z-score) [22]: -0.38
glycan array binding signal (z-score) [23]: -0.222
glycan array binding signal (z-score) [24]: -0.373
glycan array binding signal (z-score) (Neu5Ac(a2-3)Gal(b1-4)Glc): 0.1
glycan array binding signal (z-score) [25]: -0.249
glycan array binding signal (z-score) [26]: -0.371
glycan array binding signal (z-score) [27]: 0.144
glycan array binding signal (z-score) [28]: 0.99
glycan array binding signal (z-score) [29]: 0.313
glycan array binding signal (z-score) [30]: 0.136
glycan array binding signal (z-score) [31]: 0.563
glycan array binding signal (z-score) [32]: 0.353
glycan array binding signal (z-score) [33]: -0.205
glycan array binding signal (z-score) [34]: 0.257
glycan array binding signal (z-score) [35]: -0.061
